Data published in PubChem BioAssay AID1508642 (National Center for Advancing Translational Sciences (NCATS), 2021).
The whole screen tested about 43,000 compounds, of which about 200 (0.47%) were called active. The shares of active, inactive and inconclusive entries below differ from those in the screen. Calls come from the whole dose curve; as a rule, active = well fitted cell-killing curve with a large enough effect; inconclusive = small, poorly fitted or top-dose-only effect, or effect the other way; inactive = flat fitted curve, though single readings scatter. Potencies of inconclusive entries are doubtful fits and often do not repeat.
% is set by controls: 0 for no effect and ±100 for the full control effect; potency is the fitted concentration of half-maximal effect; tags give direction and shape of the fitted curve.

Assay: Cell viability qHTS assay in S16 Pmp22-F2sN cells; note: nearly all actives have a fitted effect of over 65% in size
Details: S16 Pmp22-F2sN Schwann cells (luciferase reporters placed in the Pmp22 gene) viability, CellTiter-Glo, 24 h; activity change, negative = cytotoxicity: at 57.5 µM (top of the series)
In short: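 Rat S16 Schwann reporter line, 24 h treatment with library compounds delivered at 23 nL per well. Cell viability by CellTiter-Glo luminescence.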
For `Nc1ccc2nc(-c3ccc(O)cc3)sc2c1`, the Potency was “inactive”. With `COc1ccc(NC(=O)CC2C(=O)N(c3ccc(F)cc3)C(=O)N2CCc2sccc2C)cc1` (configuration not stated) the Potency was inconclusive: 39.8 µM [cytotoxic, single point]. For `CCOC(=O)c1cc(-c2ccccc2)n(CCC(=O)Nc2cc(C)cc(C)c2)c1C`, the Potency was “inactive”. With `CCN(CC)S(=O)(=O)c1ccc2[nH]cc(C(=O)NCCc3ccccc3)c(=O)c2c1` the Potency was inconclusive: 22.4 µM [cytotoxic, partial curve, poor fit]. In the case of `CCOC(=O)c1nc(Nc2ccc(C(=O)OC)cc2)c2ccccc2n1`, the Potency is reported as inconclusive: 31.6 µM [cytotoxic, single point]. In the case of `CCCCOc1cccc(NC(=O)c2cccc(C(=O)Nc3cccc(OCCCC)c3)c2)c1`, the Potency is reported as “inactive”. With `CCOC(=O)c1c(C)oc2nc(C)nc(NCc3cccc(Cl)c3)c12` the Potency was inconclusive: 17.8 µM [rising, partial curve, poor fit]. For `COc1cccc(C(=O)NCC(=O)OCc2cc(=O)n3ccsc3n2)c1`, the Potency was inconclusive: 39.8 µM [cytotoxic, single point]. With `CCc1ccccc1NC(=O)c1ccc(=O)n(Cc2ccc(F)cc2)c1` the Potency was inconclusive: 1.58 µM [rising, full curve, poor fit]. With `CCSc1nnc2c(n1)OC(c1ccc(C)s1)Nc1ccccc1-2` (configuration not stated) the Potency was inconclusive: 39.8 µM [cytotoxic, partial curve, poor fit]. In the case of `COc1cc(NC(=O)N2CCC3(CC2)Nc2ccccc2-n2cccc23)cc(OC)c1OC`, the Potency is reported as inconclusive: 39.8 µM [cytotoxic, partial curve, poor fit]. For `CNC(=O)c1c(NC(=O)Cc2coc3ccc(C)cc23)sc2c1CCCC2`, the Potency was inconclusive: 39.8 µM [cytotoxic, partial curve, poor fit]. With `CCOc1ccc(NC(=O)N(Cc2c[nH]c3ccccc23)C2CCCCCC2)cc1` the Potency was inconclusive: 28.2 µM [cytotoxic, single point]. With `COc1ccc(C2C(C(=O)Nc3ccccc3OC)=C(C)Nc3c(C(=O)Nc4ccccc4)cnn32)c(OC)c1` (configuration not stated) the Potency was inconclusive: 20 µM [cytotoxic, partial curve, poor fit]. In the case of `COc1cccc(C(=O)Nc2ccc(-n3nncc3-c3ccccc3)cc2)c1`, the Potency is reported as inconclusive: 22.4 µM [cytotoxic, single point]. With `Cc1ccc(C)c(-c2nnc(NC(=O)c3ccc4c(c3)OCCO4)o2)c1` the Potency was inconclusive: 35.5 µM [cytotoxic, single point]. With `COc1ccc(-c2cc(C(F)(F)F)nc(SCC(=O)N3CCCCC3C)n2)cc1OC` (configuration not stated) the Potency was inconclusive: 22.4 µM [cytotoxic, partial curve, poor fit]. For `O=C1CCCc2cc(S(=O)(=O)NCC3CCC(C(=O)NCc4ccccc4Cl)CC3)ccc2N1` (configuration not stated), the Potency was inconclusive: 7.94 µM [cytotoxic, partial curve, poor fit]. In the case of `CCOC(=O)c1cnc2c(ccc3ccccc32)c1Nc1ccc(OCC)cc1`, the Potency is reported as inconclusive: 39.8 µM [cytotoxic, partial curve, poor fit]. For `Cc1ccc(S(=O)(=O)CCC(=O)Nc2ccc(Br)cc2C)cc1`, the Potency was “inactive”. With `CCOc1ccc(NC(=O)c2cnn(-c3ccc(C)c(Cl)c3)c2C2CCNCC2)cc1` the Potency was inconclusive: 39.8 µM [cytotoxic, single point]. In the case of `CN1CCN(CCCNC(=O)Cn2c(-c3cccs3)cc3cc(Cl)ccc32)CC1`, the Potency is reported as inconclusive: 25.1 µM [cytotoxic, single point]. With `CCn1cc2nc(SCC(=O)Nc3ccccc3F)n(Cc3ccc(C)cc3)c(=O)c2n1` the Potency was inconclusive: 44.7 µM [cytotoxic, single point]. For `O=C(NCCCN1CCN(c2ccccc2F)CC1)c1cc2c(Cl)nc3ccccc3c2s1`, the Potency was “inactive”. For `CCOc1ccc(-c2cc(C(=O)NCCc3ccc(Cl)cc3)c3ccccc3n2)cc1`, the Potency was “inactive”. With `OCCCc1nc2n(n1)C(c1cccc(Cl)c1)C=C(c1ccccc1)N2` (configuration not stated) the Potency was inconclusive: 35.5 µM [cytotoxic, single point]. In the case of `COc1ccccc1-c1nc(CNC(=O)Nc2ccccc2)c(C)o1`, the Potency is reported as inconclusive: 15.8 µM [rising, partial curve, poor fit]. With `COc1ccc(N2CCN(C(=O)c3ccc4c(Cl)c5c(nc4c3)CCCC5)CC2)cc1` the Potency was inconclusive: 1 µM [rising, full curve, poor fit]. For `O=c1oc2ccccc2cc1-c1cn2cc(Cc3ccccc3F)sc2n1`, the Potency was inconclusive: 1.12 µM [cytotoxic, full curve]. In the case of `Cc1ccc(Cn2c(SCc3ccc(C(=O)NC4CCCC4)cc3)nc3ccncc32)cc1`, the Potency is reported as inconclusive: 39.8 µM [cytotoxic, single point]. For `Cc1nnc(NC(=O)C(=O)c2cc(C)n(-c3ccc(C)c(C)c3)c2C)s1`, the Potency was inconclusive: 5.01 µM [cytotoxic, full curve, poor fit]. With `CCCC(=O)c1ccc(OC(=O)c2c(-c3ccccc3Cl)noc2C)cc1` the Potency was inconclusive: 12.6 µM [cytotoxic, partial curve, poor fit]. With `CCc1ccc(-n2c(SCc3cccc(F)c3)nc3[nH]ncc3c2=O)cc1` the Potency was inconclusive: 22.4 µM [cytotoxic, single point]. In the case of `O=C(CSc1oc(-c2ccccc2)nc1S(=O)(=O)c1ccccc1)c1ccccc1`, the Potency is reported as inconclusive: 31.6 µM [cytotoxic, partial curve, poor fit]. With `Cc1cc(C)cc(NC(=O)Cn2cc(C(=O)c3ccccc3)c(=O)c3ccc(C)nc32)c1` the Potency was “inactive”. For `COC(=O)CN1C(=O)C(O)(CC(=O)c2ccc(F)cc2)c2ccccc21` (configuration not stated), the Potency was inconclusive: 39.8 µM [cytotoxic, single point]. For `COc1cccc(CNC(=O)CCCn2nc(C)c3c(C)n(-c4ccc(C)cc4)nc3c2=O)c1OC`, the Potency was inconclusive: 39.8 µM [rising, partial curve, poor fit]. For `CCc1ccc(CN(C(=O)c2cc(=O)c3ccc(C)cc3o2)C2CCS(=O)(=O)C2)cc1` (configuration not stated), the Potency was “inactive”. In the case of `Cc1ccc(-c2cn(-c3ccc(Cl)cc3)c(S(=O)(=O)CC(=O)Nc3ccccc3)n2)cc1`, the Potency is reported as “inactive”. For `CCOC(=O)c1ccc(NC(=O)c2nc(SCc3ccccc3F)ncc2Cl)cc1`, the Potency was “inactive”. In the case of `CCCn1c2ccccc2c2cnn(CC(=O)NCCCN(Cc3ccccc3)C(C)C)c(=O)c21`, the Potency is reported as inconclusive: 35.5 µM [cytotoxic, partial curve, poor fit]. For `O=S(=O)(NCCc1csc2nc(-c3ccc(Cl)cc3)nn12)c1ccc2c(c1)OCCO2`, the Potency was inconclusive: 35.5 µM [cytotoxic, single point]. In the case of `COc1ccc(Nc2cc(C(=O)NCCCN(C)C3CCCCC3)c3ccccc3n2)c(OC)c1`, the Potency is reported as inconclusive: 25.1 µM [cytotoxic, partial curve]. With `O=C(NCC(c1ccc2c(c1)OCO2)N1CCN(c2ccccc2F)CC1)c1ccccc1F` (configuration not stated) the Potency was inconclusive: 39.8 µM [cytotoxic, partial curve, poor fit]. For `CC1=Nc2cc(C(=O)NC3CCCC3)ccc2Sc2ccc(Cl)cc21`, the Potency was inconclusive: 0.316 µM [cytotoxic, full curve, poor fit]. With `CCN1CCOC(=O)C1CC(=O)Nc1cc(Cl)ccc1C` (configuration not stated) the Potency was inconclusive: 39.8 µM [cytotoxic, single point]. For `CC(C)CN(CC(C)C)S(=O)(=O)c1ccc(C(=O)Nc2sc3c(c2C(N)=O)CCN(C(C)C)C3)cc1`, the Potency was inconclusive: 25.1 µM [cytotoxic, single point]. With `O=C(Nc1cccc(Cl)c1)c1cc(S(=O)(=O)N2CCC3(CC2)OCCO3)ccc1F` the Potency was inconclusive: 12.6 µM [cytotoxic, partial curve]. In the case of `O=C(CCC1N=C2c3ccccc3N=C(SCc3ccc(Cl)cc3)N2C1=O)NC1CCCCC1` (configuration not stated), the Potency is reported as inconclusive: 39.8 µM [cytotoxic, single point]. With `Cc1ccc(-n2ncc3c(N4CCCCC4)ncnc32)cc1` the Potency was “inactive”. For `Cc1ccc2c(c1)C(C)(c1ccccc1)CC(C)(C)N2C(=O)c1ccc(F)cc1` (configuration not stated), the Potency was inconclusive: 22.4 µM [cytotoxic, partial curve, poor fit]. In the case of `Cc1ccccc1NC(=O)c1c(NC(=O)C(F)(F)F)sc2c1CCCCC2`, the Potency is reported as inconclusive: 3.98 µM [cytotoxic, partial curve]. For `CCOc1ccccc1Nc1sc(C(=O)c2ccc(Cl)cc2)c(N)c1C(=O)NCCc1ccccc1`, the Potency was “inactive”. In the case of `Cn1c(-c2ccc(S(=O)(=O)N3CCCC3)cc2)csc1=Nc1ccc(Cl)c(Cl)c1`, the activity change, negative = cytotoxicity is reported as inconclusive: -33.4% [cytotoxic]. For `Cc1ccc(-n2nc(C(=O)Nc3cccc(C#N)c3)c3c4ccccc4n(C)c3c2=O)cc1`, the Potency was inconclusive: 7.08 µM [rising, partial curve, poor fit]. With `Cc1cc2n(n1)CCC(=O)N2Cc1ccc(C(=O)Nc2ccc(Br)c(C)c2)cc1` the Potency was inconclusive: 28.2 µM [cytotoxic, single point]. With `O=C(NCCc1ccc(Cl)cc1)c1nc(-c2cccc(F)c2)n2c1CCCCC2` the Potency was “inactive”. With `COc1ccc(NC(=O)C(=O)NCC(c2cccnc2)N2CCc3ccccc3C2)cc1` (configuration not stated) the Potency was “inactive”. For `COc1ccc(NC(=O)C(NC(=O)/C=C\c2ccc3c(c2)OCO3)c2ccc(OC)cc2)cc1` (configuration not stated), the Potency was “inactive”. For `Cc1ccc(NC(=O)CN2C(=O)c3ccccc3Sc3ccc(C(=O)N4CCCC4)cc32)cc1`, the Potency was “inactive”. With `CCN(CC)CCNC(=O)c1[nH]c2ccccc2c1Sc1ccc(Cl)cc1` the Potency was inconclusive: 39.8 µM [cytotoxic, single point]. For `CCN(C(=O)c1nn(-c2ccc(C)cc2)c(=O)c2c1c1ccccc1n2C)c1ccc(F)cc1`, the Potency was inconclusive: 31.6 µM [rising, single point].
